According to the supplement of paper PMC8728848:
The list shows a part of the results.

How the values were obtained:
Assay in all cases: glycan array binding signal (z-score within array); higher = stronger binding
Details in all cases: glycan notation: IUPAC condensed, linker removed
[1] = target: Fuc(a1-2)Gal(b1-4)[Fuc(a1-3)]GlcNAc(b1-2)Man(a1-3)[Fuc(a1-2)Gal(b1-4)[Fuc(a1-3)]GlcNAc(b1-2)Man(a1-6)]Man(b1-4)GlcNAc(b1-4)[Fuc(a1-6)]GlcNAc
In short: (§1)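 Glycan array data came from 3228 arrays in the Consortium for Functional Glycomics database, and only arrays with an available protein sequence were kept. Glycan names were put into IUPAC-condensed notation, and columns mapping to the same glycan were averaged. The binding signal is a within-array Z-score, averaged across arrays of one protein sequence run at different concentrations or buffers and across linkers. A negative Z-score can be read as non-binding.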

[2] = target: Fuc(a1-2)Gal(b1-4)[Fuc(a1-3)]GlcNAc(b1-2)[Fuc(a1-2)Gal(b1-4)[Fuc(a1-3)]GlcNAc(b1-4)]Man(a1-3)[Fuc(a1-2)Gal(b1-4)[Fuc(a1-3)]GlcNAc(b1-2)Man(a1-6)]Man(b1-4)GlcNAc(b1-4)GlcNAc
In short: as §1

[3] = target: Fuc(a1-2)Gal(b1-4)[Fuc(a1-3)]GlcNAc(b1-3)Gal(b1-4)[Fuc(a1-3)]GlcNAc
In short: as §1

[4] = target: Fuc(a1-2)Gal(b1-4)[Fuc(a1-3)]GlcNAc(b1-3)Gal(b1-4)[Fuc(a1-3)]GlcNAc(b1-3)Gal(b1-4)[Fuc(a1-3)]GlcNAc
In short: as §1

[5] = target: Fuc(a1-2)Gal(b1-4)[Fuc(a1-3)]GlcNAc(b1-3)GalNAc
In short: as §1

[6] = target: Fuc(a1-2)Gal(b1-4)[Fuc(a1-3)]GlcNAc(b1-3)[Neu5Ac(a2-6)Gal(b1-4)GlcNAc(b1-6)]Gal(b1-4)Glc
In short: as §1

[7] = target: Fuc(a1-2)Gal3S(b1-4)GlcNAc
In short: as §1

[8] = target: Fuc(a1-2)Gal6S(b1-3)GlcNAc
In short: as §1

[9] = target: Fuc(a1-2)Gal6S(b1-3)GlcNAc6S
In short: as §1

Fuc(a1-2)Gal6S(b1-4)Glc = target: Fuc(a1-2)Gal6S(b1-4)Glc
In short: as §1

[10] = target: Fuc(a1-2)Gal6S(b1-4)Glc6S
In short: as §1

Fuc(a1-2)[Gal(a1-3)]Gal = target: Fuc(a1-2)[Gal(a1-3)]Gal
In short: as §1

[11] = target: Fuc(a1-2)[Gal(a1-3)]Gal(b1-3)GalNAc
In short: as §1

[12] = target: Fuc(a1-2)[Gal(a1-3)]Gal(b1-3)GalNAc(b1-3)Gal(a1-4)Gal(b1-4)Glc
In short: as §1

[13] = target: Fuc(a1-2)[Gal(a1-3)]Gal(b1-3)GlcNAc
In short: as §1

[14] = target: Fuc(a1-2)[Gal(a1-3)]Gal(b1-3)GlcNAc(b1-2)Man(a1-3)[Fuc(a1-2)[Gal(a1-3)]Gal(b1-3)GlcNAc(b1-2)Man(a1-6)]Man(b1-4)GlcNAc(b1-4)GlcNAc
In short: as §1

[15] = target: Fuc(a1-2)[Gal(a1-3)]Gal(b1-3)GlcNAc(b1-2)Man(a1-3)[Fuc(a1-2)[Gal(a1-3)]Gal(b1-3)GlcNAc(b1-2)Man(a1-6)]Man(b1-4)GlcNAc(b1-4)[Fuc(a1-6)]GlcNAc
In short: as §1

[16] = target: Fuc(a1-2)[Gal(a1-3)]Gal(b1-3)GlcNAc(b1-3)GalNAc
In short: as §1

[17] = target: Fuc(a1-2)[Gal(a1-3)]Gal(b1-3)GlcNAc(b1-6)GalNAc
In short: as §1

[18] = target: Fuc(a1-2)[Gal(a1-3)]Gal(b1-4)Glc
In short: as §1

[19] = target: Fuc(a1-2)[Gal(a1-3)]Gal(b1-4)GlcNAc
In short: as §1

[20] = target: Fuc(a1-2)[Gal(a1-3)]Gal(b1-4)GlcNAc(b1-2)Man
In short: as §1

[21] = target: Fuc(a1-2)[Gal(a1-3)]Gal(b1-4)GlcNAc(b1-2)Man(a1-3)[Fuc(a1-2)[Gal(a1-3)]Gal(b1-4)GlcNAc(b1-2)Man(a1-6)]Man(b1-4)GlcNAc(b1-4)GlcNAc
In short: as §1

[22] = target: Fuc(a1-2)[Gal(a1-3)]Gal(b1-4)GlcNAc(b1-2)Man(a1-3)[Fuc(a1-2)[Gal(a1-3)]Gal(b1-4)GlcNAc(b1-2)Man(a1-6)]Man(b1-4)GlcNAc(b1-4)[Fuc(a1-6)]GlcNAc
In short: as §1

[23] = target: Fuc(a1-2)[Gal(a1-3)]Gal(b1-4)GlcNAc(b1-3)GalNAc
In short: as §1

[24] = target: Fuc(a1-2)[Gal(a1-3)]Gal(b1-4)GlcNAc(b1-3)[Fuc(a1-2)[Gal(a1-3)]Gal(b1-4)GlcNAc(b1-6)]GalNAc
In short: as §1

[25] = target: Fuc(a1-2)[Gal(a1-3)]Gal(b1-4)GlcNAc(b1-6)GalNAc
In short: as §1

[26] = target: Fuc(a1-2)[Gal(a1-3)]Gal(b1-4)[Fuc(a1-3)]Glc
In short: as §1

[27] = target: Fuc(a1-2)[Gal(a1-3)]Gal(b1-4)[Fuc(a1-3)]GlcNAc
In short: as §1

[28] = target: Fuc(a1-2)[Gal(a1-3)]Gal(b1-4)[Fuc(a1-3)]GlcNAc(b1-3)GalNAc
In short: as §1

[29] = target: Fuc(a1-2)[Gal(a1-4)]Gal(b1-4)GlcNAc
In short: as §1

[30] = target: Fuc(a1-2)[GalNAc(a1-3)]Gal
In short: as §1

[31] = target: Fuc(a1-2)[GalNAc(a1-3)]Gal(b1-3)GalNAc(a1-3)[Fuc(a1-2)]Gal(b1-4)GlcNAc
In short: as §1

[32] = target: Fuc(a1-2)[GalNAc(a1-3)]Gal(b1-3)GalNAc(b1-3)Gal(a1-4)Gal(b1-4)Glc
In short: as §1

[33] = target: Fuc(a1-2)[GalNAc(a1-3)]Gal(b1-3)GlcNAc
In short: as §1

[34] = target: Fuc(a1-2)[GalNAc(a1-3)]Gal(b1-3)GlcNAc(b1-2)Man(a1-3)[Fuc(a1-2)[GalNAc(a1-3)]Gal(b1-3)GlcNAc(b1-2)Man(a1-6)]Man(b1-4)GlcNAc(b1-4)GlcNAc
In short: as §1

[35] = target: Fuc(a1-2)[GalNAc(a1-3)]Gal(b1-3)GlcNAc(b1-2)Man(a1-3)[Fuc(a1-2)[GalNAc(a1-3)]Gal(b1-3)GlcNAc(b1-2)Man(a1-6)]Man(b1-4)GlcNAc(b1-4)[Fuc(a1-6)]GlcNAc
In short: as §1

[36] = target: Fuc(a1-2)[GalNAc(a1-3)]Gal(b1-3)GlcNAc(b1-3)GalNAc
In short: as §1

B1: Pwp2 (Candida glabrata) (protein)
chain: MGSSHHHHHHSSGLVPRGSHMASKNPVELNNVCTFPNDYGRIPGFTVLVGRLGLLISASDYKELLRYPGAFLIATQDTMTTSPNFELTGFPFFTGLYGLTVFPLDLLVELRGYFVPPNSGQYTFTLSDSDDAAIIFLGNPSAFPCGDLQNWPKPSEEDITVTDHLFPSRTLYLIEGVAYPMRIAYYNGIGAGRLNAAFIDPSGTRHTNWEGYIWQYDPCSTCTYS
glycan array binding signal (z-score) [1]: -0.003 | glycan array binding signal (z-score) [2]: 0.016 | glycan array binding signal (z-score) [3]: -0.673 | glycan array binding signal (z-score) [4]: -0.086 | glycan array binding signal (z-score) [5]: -0.225 | glycan array binding signal (z-score) [6]: -0.401 | glycan array binding signal (z-score) [7]: 2.57 | glycan array binding signal (z-score) [8]: -0.476 | glycan array binding signal (z-score) [9]: -0.073 | glycan array binding signal (z-score) (Fuc(a1-2)Gal6S(b1-4)Glc): -0.381 | glycan array binding signal (z-score) [10]: -1.36 | glycan array binding signal (z-score) (Fuc(a1-2)[Gal(a1-3)]Gal): 1.65 | glycan array binding signal (z-score) [11]: -0.201 | glycan array binding signal (z-score) [12]: -0.25 | glycan array binding signal (z-score) [13]: 0.664 | glycan array binding signal (z-score) [14]: -0.12 | glycan array binding signal (z-score) [15]: 0.126 | glycan array binding signal (z-score) [16]: 1.19 | glycan array binding signal (z-score) [17]: -0.62 | glycan array binding signal (z-score) [18]: -0.481 | glycan array binding signal (z-score) [19]: -0.462 | glycan array binding signal (z-score) [20]: -0.503 | glycan array binding signal (z-score) [21]: -0.438 | glycan array binding signal (z-score) [22]: 0.098 | glycan array binding signal (z-score) [23]: -0.603 | glycan array binding signal (z-score) [24]: -0.24 | glycan array binding signal (z-score) [25]: 3.17 | glycan array binding signal (z-score) [26]: -0.537 | glycan array binding signal (z-score) [27]: -0.529 | glycan array binding signal (z-score) [28]: -0.465 | glycan array binding signal (z-score) [29]: -0.494 | glycan array binding signal (z-score) [30]: -0.745 | glycan array binding signal (z-score) [31]: 0.144 | glycan array binding signal (z-score) [32]: -0.386 | glycan array binding signal (z-score) [33]: -0.368 | glycan array binding signal (z-score) [34]: -0.258 | glycan array binding signal (z-score) [35]: -0.465 | glycan array binding signal (z-score) [36]: -0.08
